# Over roughly 16,000 sequences, “Z-score” has its median near -0.37; the highest 2% begin near 3.1. The list shows a part of the results.
# Tested on: RBM10 RRM1-ZnF-RRM2 (GST-tagged construct)
# Assay: RNAcompete 7-mer binding Z-score; higher = stronger binding preference
# In short: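 GST-tagged RBM10 constructs (20 pmol) were mixed with a designed pool of 241 399 RNAs up to 41 nt (1.5 nmol), transcribed from microarray-derived DNA templates. Mixing was in 1 ml Hepes pH 7.8 buffer with KCl, NaCl, glycerol, DTT, BSA and glutathione Sepharose beads. Binding ran 30 min at 4°C, followed by four 2-min washes at 4°C, and bound RNA was identified by microarray hybridisation. Each heptamer motif received a one-sided Z-score for enrichment across probes containing it.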
row,Sequence,RNAcompete 7-mer binding Z-score
1,CAUUAUG,-0.428
2,UGGACUC,-0.136
3,CAGACAG,0.0896
4,UAGGAGA,1.78
5,UAGCCGA,-0.573
6,UGCCCUA,-0.93
7,UUGUCCA,-0.828
8,UGGGGUG,4.14
9,CCCUUAG,-0.777
10,CCGGUGU,0.0823
11,AGCUCAA,-0.712
12,GUUUCCG,-0.475
13,AUCGGAG,0.884
14,GCGCACC,-0.395
15,UUCGUCA,-0.402
16,CCGUAAU,-0.643
17,CGGAAAU,0.319
18,ACCGAAC,-0.544
19,GUAGGAG,3.78
20,ACUGUGU,-0.42
21,AGACUGG,0.654
22,CCGACUU,-0.897
23,UCAGACG,-0.0343

row,Sequence,RNAcompete 7-mer binding Z-score
1,GAAGACC,-0.256
2,AGUAUCA,-0.22
3,CUGUUGC,-0.803
4,ACUGUGG,0.796
5,CUCCGUU,-0.905
6,AAAACCC,-0.846
7,UUAUCGC,-0.927
8,ACGUCUC,-0.708
9,AUCGGAU,0.253
10,GAGCUAC,-0.224
11,UGACAUA,-0.326
12,AGGCCGG,0.235
13,GCGGUCC,-0.271
14,CAAUUGU,-0.734
15,AUGGAUG,2.59
16,GGGGUAG,4.58
17,AACGCUA,-0.453
18,UAAUGGU,0.814
19,GUACCUG,-0.439
20,CAUCGUG,-0.173
21,CUCUCCG,-0.894
22,GAGCGCG,0.297
23,CGAAGUA,0.101

row,Sequence,RNAcompete 7-mer binding Z-score
1,CGUGAGC,-0.242
2,CGCAACU,-0.825
3,UCGCAAU,-0.577
4,CUCUCCA,-0.799
5,ACGACGC,0.00216
6,CCCUAUC,-0.894
7,UGUUUUU,-0.46
8,GGGACAU,1.96
9,CGACGUU,-0.679
10,GAGUGGA,3.07
11,GUCCUAC,-0.697
12,CCGAUGA,-0.318
13,GCCUGAC,-0.694
14,CAAUCUC,-0.81
15,UAUCCGC,-0.883
16,AAGGCCC,-0.249
17,UCCUCUG,-0.694
18,CGUCAUC,-0.599
19,UAAAAGA,-0.111
20,AUUAUCA,-0.464
21,UUUGUUC,-0.632
22,UAUGGUU,1.29
23,AGCACUU,-0.526

row,Sequence,RNAcompete 7-mer binding Z-score
1,GUCAUCG,-0.118
2,UGUUUAG,-0.286
3,AGAUAAG,0.989
4,GUUGCUU,-0.577
5,GCUUACU,-0.734
6,AUACGGG,2.14
7,GGCGUGC,0.92
8,GACACAG,0.61
9,UAGACGC,-0.333
10,CAGCCUC,-0.741
11,AGGCGGA,1.7
12,GCGUUUA,-0.551
13,UAGCCGU,-0.479
14,AUGCGAA,0.228
15,UGUGUGG,1.79
16,GACUCGC,-0.774
17,AAGUGCG,0.698
18,UAUCGUG,-0.0561
19,GGUCUGG,0.563
20,GUGGAGA,2.57
21,UCCUCCC,-0.592
22,AAGUUGU,-0.0343
23,UUCAACA,-0.373

row,Sequence,RNAcompete 7-mer binding Z-score
1,GAUAACC,-0.417
2,AUUGGGG,3.16
3,AGGUCAC,-0.195
4,UUCUUUU,-0.763
5,CAAAGUC,-0.337
6,CGUUUGC,-0.766
7,UGACACU,-0.675
8,UGCACUA,-0.57
9,UGGACCU,-0.0743
10,CCGCUUU,-1
11,GGGACUA,1.33
12,GCGAACG,1.05
13,UUAGCGC,-0.617
14,CGCGCGG,1.01
15,CCUUCAA,-0.814
16,AUCUUUA,-0.828
17,UACGUAC,-0.227
18,CGACGGA,0.949
19,CUCCCGC,-0.763
20,GGCCUAA,-0.078
21,GACCUUC,-1.01
22,UACGUCG,-0.202
23,UAGGCAC,0.417

row,Sequence,RNAcompete 7-mer binding Z-score
1,CGACCGU,-0.592
2,GUCGCCG,-0.34
3,AGUUGCA,0.144
4,GGCUUCC,-0.548
5,UUGGGAC,1.75
6,GGGUCAC,1.67
7,CUGGCAU,-0.617
8,GCCCGGU,-0.486
9,GAUUUGU,-0.296
10,CAUCAGC,-0.719
11,UCUGAGU,-0.497
12,CCAAUGC,-0.544
13,AGUCGGC,0.301
14,AGAGACC,-0.774
15,GCGUAGC,0.264
16,CGGAUCU,-0.457
17,CUUGUCA,-0.93
18,UCAAAUA,-0.653
19,CUGAAAU,-0.632
20,CGAUGAG,0.752
21,AACCUAA,-0.734
22,UCCCUGC,-0.741
23,ACACCGA,-0.515

row,Sequence,RNAcompete 7-mer binding Z-score
1,GCGGCAG,0.887
2,UUGUCUA,-0.694
3,GUACCCC,-0.242
4,UGAUGUC,-0.664
5,GGCCUUG,-0.256
6,AGCGAUA,0.243
7,UGCAUAC,-0.362
8,UUUUCAU,-0.457
9,UUGCUUU,-0.694
10,AGCUGUU,-0.814
11,AUCUUUG,-0.846
12,AAGAUGG,2.68
13,CUCCGAU,-0.832
14,AUAUAAA,-0.42
15,ACCACGU,-0.431
16,AGCAAAA,-0.0197
17,CAAUUAC,-0.675
18,CUCGCCA,-0.726
19,UUGUACC,-0.697
20,GGGAGCA,2.48
21,GUUUUAA,-0.377
22,GGUUUCG,1.12
23,GUGCUGU,-0.271

row,Sequence,RNAcompete 7-mer binding Z-score
1,CCCCCGU,-0.406
2,UUCGACA,-0.595
3,GGUCGUA,0.567
4,AACGAAG,0.345
5,CUAUCCA,-0.788
6,GUACCCG,-0.373
7,CUUAAUG,-0.679
8,UUCGGCU,-0.61
9,CUCUACU,-0.806
10,ACUACUA,-0.617
11,ACCGUAG,-0.147
12,CCAUUGG,-0.53
13,UGCAAAC,-0.293
14,GUUGCGU,0.199
15,GUCUGAG,-0.0925
16,GUCUCAU,-0.679
17,GUUGUCC,-0.482
18,AUCUUAG,-0.592
19,GCGUUAG,0.352
20,AAUUUAC,-0.701
21,GUGGUAA,1.81
22,UAGCUCG,-0.213
23,CAUCCUA,-0.897

# Source: the supplement of paper PMC5499739
